About 120 (0.25%) of roughly 48,000 compounds were called active. Not shown: some 4% with an inconclusive outcome. Calls come from the whole dose curve; as a rule, active = well fitted activation curve with a large enough effect; inconclusive = small, poorly fitted or top-dose-only effect, or another doubt; inactive = no such curve, though single readings can be large or run the other way. Some of the results follow.
Assay: Primary qHTS for Identification of Small Molecule Activators of Huntingtin-Antisense Promoter Activity; note: nearly all actives have a fitted effect of over 55% in size
Conditions: HEK293 HTT-AS promoter firefly luciferase reporter (activity 0% = vehicle and -100% = no light), 24 h; series mostly up to 57.5 µM; activity change, positive = activation: at the top concentration
Outline: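 HEK293 luciferase promoter-reporter cells (2,500/well) plated 24 h, then compounds added at up to 57.5 uM final for 24 h at 37 °C. Firefly luminescence by Dual-Glo, normalized to vehicle (0%) and zero RLU (-100%).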

Activity change, positive = activation, inactive:
CC(=O)Nc1ccc(NC(=O)CSc2nccn2Cc2ccc3c(c2)OCO3)cc1 -11.6%
COc1cc(NC(=O)CSc2ncc3c(n2)-c2ccc(Cl)cc2N(Cc2ccccc2)S3(=O)=O)cc(OC)c1 1.9%
O=C1CSC2(C(=O)N(Cc3ccccc3F)c3ccccc32)N1c1cccc(C(F)(F)F)c1 (stereo not given) -41.8%
O=C(Cn1ncc2c3ccccc3n(Cc3ccc(Cl)cc3)c2c1=O)NCCC1=CCCCC1 -7.73%
CN(C)CCNC(=O)C1CCN(c2ncnc3c2nc2n3CCCCC2)CC1 -8.59%
CCCn1c2ccccc2c2cnn(CC(=O)NCCCN3CCCCC3)c(=O)c21 -10.2%
CCOc1ccc(NC(=O)c2sc3nc4c(c(-c5ccccc5)c3c2N)C(=O)CC(C)(C)C4)cc1 -7.34%
O=C(NCCc1ccccc1)c1ccc2nc(N3CCCCC3)sc2c1 -42.8%
CCOc1cc(C2C(C(=O)OC)=C(C)NC3=C2C(=O)c2ccccc23)ccc1OC (stereo not given) -25%
OCC(O)CS (stereo not given) -0.166%
Cc1ccccc1NC(=O)c1cn(-c2ccccc2)nc1-c1ccccc1 -16.4%
CCc1cc(-c2n[nH]c(C)c2-c2ccc3c(c2)OCCO3)c(O)cc1O -44.7%
O=S(=O)(NCC(c1ccco1)N1CCOCC1)c1ccc(Br)cc1 (stereo not given) -13.6%
Cc1ccccc1-c1ccnc2[nH]n(-c3ccccc3)c(=O)c12 -10.4%
COc1ccc(OC)c(CN2CCN(S(=O)(=O)c3ccccc3)CC2)c1 -1.46%
Cc1ccc2oc(C(=O)N(Cc3ccc(N(C)C)cc3)CC3CCCO3)c(C)c2c1 (stereo not given) -24.3%
CCOC(=O)c1c(NC(=O)CSc2cn(CCNC(=O)c3cccc(C(F)(F)F)c3)c3ccccc23)sc2c1CCC2 2.02%
COc1ccccc1C(=O)Nc1cccc(C(=O)OCc2cc(=O)n3nc(C4CC4)sc3n2)c1 -21.5%
O=C(Nc1ccc(OC(F)(F)F)cc1)C(Cc1ccccc1)NS(=O)(=O)c1cccc2nsnc12 (stereo not given) -30.2%
CC1CCCN(CCCNC(=O)c2ccc3c(c2)N(Cc2cccc(Cl)c2)C(=O)c2ccccc2S3(=O)=O)C1 (stereo not given) -19.2%
CC(C)Cc1nn2c(=O)cc(COC(=O)CNC(=O)c3ccc(C(C)(C)C)cc3)nc2s1 0.968%
Cc1ccc(C)c(CNC(=O)c2ccc3c(c2)nc2n3CCOC2)c1 -7.4%
COC(=O)c1ccc(C2c3c(oc4ccc(C)cc4c3=O)C(=O)N2Cc2ccc3c(c2)OCO3)cc1 (stereo not given) -15%
COc1cccc(CNC(=O)Cn2ccc3cc(S(=O)(=O)N4CCCC4)ccc32)c1OC -26.6%
COc1ncc(-c2ccc3nccc(-c4ccnnc4)c3c2)cc1NS(=O)(=O)c1ccc(F)cc1F -36.2%
Cc1ccc(S(=O)(=O)c2nnn3c2nc(NCc2ccc4c(c2)OCO4)c2sccc23)cc1 -33.3%
CCOC(=O)c1c(Nc2ccc(O)cc2)nnc(-c2ccccc2)c1-c1ccccc1 -18.9%
O=C(Cc1ccccc1)Nc1c(C(=O)c2ccccc2)oc2ccccc12 -5.07%
COc1ccc(CNC(=O)c2cc3cc4ccc(C)cc4nc3o2)cc1 1.06%
CCc1ccc(C(=O)COC(=O)C(Cc2c[nH]c3ccccc23)NC(=O)c2ccc(CC)cc2)cc1 (stereo not given) 4.37%
Cc1ccc(NC(=O)CSc2nnc(-c3nnn(-c4ccc(F)cc4)c3C)o2)cc1Br -0.624%
Cc1nc(-c2cccc(F)c2)sc1CCNC(=O)c1c(F)cccc1Cl -14.1%
CCCCn1c(=NC(=O)C(C)(C)Oc2ccc(Cl)cc2)c(C(=O)OCC)cc2c(=O)n3ccccc3nc21 -14.2%
COc1cccc(N2CCN(C(=O)c3cc4c(s3)-c3c(C)cccc3OC4)CC2)c1 -1.45%
COC(=O)Nc1nc2ccc(C(=O)c3ccc(F)cc3)cc2[nH]1 -23.3%
Cc1ccc(OCC(=O)Nc2nonc2-c2ccc(C)c(C)c2)cc1C 6.98%
Cc1ccc(NC(=O)CN2C(=O)COc3ccc(S(=O)(=O)N4CCCCCC4)cc32)cc1Cl -42.8%
CCC(Sc1nc(-c2ccccc2)[nH]c1S(=O)(=O)c1ccc(C)cc1)C(=O)O (stereo not given) -5.63%
O=C(NCCCN1CCN(c2ccc(F)cc2)CC1)c1cc2c(Cl)nc3ccccc3c2s1 -10.3%
Cc1cc(=O)n(Cc2ccc(F)cc2Cl)c2c1c(C)nn2C -20.9%
CC(C)c1ccc(-c2noc(SCC(=O)N3CCCCC3C)n2)cc1 (stereo not given) 5.28%
Cc1cc(C)cc(OC(=O)c2cc(-c3ccc(Cl)cc3)on2)c1 0.668%
Cc1cccc(-c2nc(CCNC(=O)c3ccc(Br)o3)cs2)c1 -17%
Cc1cc(C)cc(NC(=O)c2ccc3oc(=O)c(S(=O)(=O)c4ccc(F)cc4)cc3c2)c1 -52.8%
COc1ccc(N2CCN(C(=O)C3CCN(S(=O)(=O)c4cccc5nonc45)CC3)CC2)cc1 -29.5%
CCN1CCN(CCCNC(=O)CS(=O)(=O)Cc2nc(-c3ccccc3C)oc2C)CC1 -16.1%
CC(C)CN(C[C@H](O)[C@H](Cc1ccccc1)NC(=O)O[C@H]1CCOC1)S(=O)(=O)c1ccc(N)cc1 -5.02%
Cc1ccc(-c2nnc(Nc3ccc(C(N)=O)cc3)c3ccccc23)cc1S(N)(=O)=O -8.72%
COc1ccc(NC(=O)Cn2c(=O)c3cccn3c3ccccc32)cc1Cl -14.3%
COc1cccc2sc(NC(=O)c3ccc(S(=O)(=O)N4CCC(C)CC4)cc3)nc12 -45.5%
CCOC(=O)c1noc2ncnc(Nc3cc(Cl)c(OC)cc3OC)c12 0.706%
COc1ccc(C)cc1NC(=O)Nc1cc(C(=O)NCc2ccc(C)cc2)ccc1N1CCCC1 3.09%
COc1ccc(-c2nc3sc(CCNC(=O)Cc4ccc(F)cc4)c(C)n3n2)cc1 12%
Cc1sc(-c2cc3ccccc3oc2=O)nc1-c1ccc(Cl)c(Cl)c1 9.7%
Cc1nnc(N2CCCC(C(=O)NCCN(C)C)C2)c2nn(-c3ccccc3)c(C)c12 (stereo not given) 11.3%
CCOc1ccc(CNCc2c(C(=O)O)c(C)n(Cc3ccc(C)cc3)c2C)cc1 -16.7%
CCOc1ccccc1OCCCCn1c(-c2ccc(Cl)cc2)nc2ccccc2c1=O -12.2%
COc1cc(Cl)c(NC(=O)CCc2nc3cccnc3n2-c2ccccc2)c(OC)c1 -22.4%
CC(=O)Nc1c(C)nn(-c2ccccc2)c1N1CCC(C(=O)NCc2cccc(Cl)c2)CC1 16.9%
O=C(CSc1nc2cc3ccccc3cc2[nH]1)Nc1ccc(F)cc1 -7.94%

Reference: PubChem BioAssay AID1508624 (National Center for Advancing Translational Sciences (NCATS), 2021)
